Binding data for five substances are collected here from article PMC3032772.

The chains behind the UniProt entries cited, without tags or fusion partners. Where a name states a change or a piece, a line headed by the entry shows the natural chain unless it says otherwise. A line that says so, or that is headed by a name, gives the form on record, which may keep a tag or linker. Residues count along the entry.
GFP-Cdc42V12 (P60953, form named): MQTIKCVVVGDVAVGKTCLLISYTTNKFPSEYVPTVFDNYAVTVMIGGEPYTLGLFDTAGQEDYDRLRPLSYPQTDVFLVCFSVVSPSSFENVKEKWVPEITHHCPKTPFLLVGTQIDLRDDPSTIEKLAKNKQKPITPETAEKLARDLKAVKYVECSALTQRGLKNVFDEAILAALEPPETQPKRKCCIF
GFP-Cdc42N17 (P60953, form named): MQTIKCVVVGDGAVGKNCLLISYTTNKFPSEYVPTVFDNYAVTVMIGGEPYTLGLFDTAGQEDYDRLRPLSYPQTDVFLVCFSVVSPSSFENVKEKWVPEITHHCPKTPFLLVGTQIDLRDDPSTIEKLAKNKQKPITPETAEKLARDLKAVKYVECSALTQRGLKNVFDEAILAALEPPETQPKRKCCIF
GFP-APC^1–1638 (P25054, residues 1-1638): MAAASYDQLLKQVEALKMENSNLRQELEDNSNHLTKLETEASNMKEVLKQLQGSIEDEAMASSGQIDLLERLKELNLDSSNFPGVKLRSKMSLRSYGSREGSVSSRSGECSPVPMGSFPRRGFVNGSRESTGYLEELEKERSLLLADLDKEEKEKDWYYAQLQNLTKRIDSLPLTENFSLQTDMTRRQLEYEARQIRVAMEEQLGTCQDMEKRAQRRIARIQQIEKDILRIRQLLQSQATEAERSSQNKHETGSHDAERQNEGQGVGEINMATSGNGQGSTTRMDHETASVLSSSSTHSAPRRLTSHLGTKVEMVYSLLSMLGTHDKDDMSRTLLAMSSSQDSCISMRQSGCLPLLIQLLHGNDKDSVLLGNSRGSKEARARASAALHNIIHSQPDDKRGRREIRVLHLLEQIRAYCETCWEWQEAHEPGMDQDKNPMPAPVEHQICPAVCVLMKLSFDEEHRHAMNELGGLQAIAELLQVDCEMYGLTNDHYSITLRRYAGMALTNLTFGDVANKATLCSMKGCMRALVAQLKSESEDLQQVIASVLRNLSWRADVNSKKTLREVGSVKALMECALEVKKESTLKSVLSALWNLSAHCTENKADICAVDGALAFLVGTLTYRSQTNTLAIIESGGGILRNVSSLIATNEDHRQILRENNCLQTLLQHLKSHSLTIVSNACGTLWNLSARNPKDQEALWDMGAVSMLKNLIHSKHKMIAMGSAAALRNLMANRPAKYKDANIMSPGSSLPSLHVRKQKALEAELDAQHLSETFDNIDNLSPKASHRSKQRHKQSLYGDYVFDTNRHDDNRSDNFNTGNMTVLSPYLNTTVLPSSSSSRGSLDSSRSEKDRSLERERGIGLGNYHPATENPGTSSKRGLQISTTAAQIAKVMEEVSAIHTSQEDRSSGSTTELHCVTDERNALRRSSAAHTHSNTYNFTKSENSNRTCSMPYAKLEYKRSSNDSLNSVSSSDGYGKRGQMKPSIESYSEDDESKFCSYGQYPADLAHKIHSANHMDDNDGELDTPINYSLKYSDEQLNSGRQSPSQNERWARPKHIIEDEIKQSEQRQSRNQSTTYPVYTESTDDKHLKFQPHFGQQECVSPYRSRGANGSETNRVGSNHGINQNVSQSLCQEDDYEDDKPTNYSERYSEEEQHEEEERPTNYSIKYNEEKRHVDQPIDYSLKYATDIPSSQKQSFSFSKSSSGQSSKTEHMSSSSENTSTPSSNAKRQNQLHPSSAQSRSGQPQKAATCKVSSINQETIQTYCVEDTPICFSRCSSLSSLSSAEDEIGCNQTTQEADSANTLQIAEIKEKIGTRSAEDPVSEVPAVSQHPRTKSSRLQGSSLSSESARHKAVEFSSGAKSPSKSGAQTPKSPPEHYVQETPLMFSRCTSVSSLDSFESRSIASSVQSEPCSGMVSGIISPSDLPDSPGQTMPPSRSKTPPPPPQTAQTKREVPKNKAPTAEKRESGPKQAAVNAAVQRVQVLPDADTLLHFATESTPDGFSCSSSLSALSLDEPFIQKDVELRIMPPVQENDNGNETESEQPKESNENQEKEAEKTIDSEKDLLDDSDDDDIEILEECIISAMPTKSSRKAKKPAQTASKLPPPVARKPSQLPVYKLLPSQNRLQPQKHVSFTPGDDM
mRFP-APC^222–653 (P25054, residues 222-653): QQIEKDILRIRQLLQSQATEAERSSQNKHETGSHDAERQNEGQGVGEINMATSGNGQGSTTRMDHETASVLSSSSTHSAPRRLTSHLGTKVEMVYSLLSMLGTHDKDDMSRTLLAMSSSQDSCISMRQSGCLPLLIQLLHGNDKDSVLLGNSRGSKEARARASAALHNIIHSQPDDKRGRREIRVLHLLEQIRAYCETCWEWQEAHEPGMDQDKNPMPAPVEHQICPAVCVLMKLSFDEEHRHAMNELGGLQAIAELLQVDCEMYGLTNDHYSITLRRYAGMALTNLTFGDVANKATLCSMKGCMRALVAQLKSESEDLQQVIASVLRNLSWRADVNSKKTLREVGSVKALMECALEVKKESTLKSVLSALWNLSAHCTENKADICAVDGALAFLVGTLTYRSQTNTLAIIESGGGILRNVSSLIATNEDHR
mRFP-APC^222–453 (P25054, residues 222-453): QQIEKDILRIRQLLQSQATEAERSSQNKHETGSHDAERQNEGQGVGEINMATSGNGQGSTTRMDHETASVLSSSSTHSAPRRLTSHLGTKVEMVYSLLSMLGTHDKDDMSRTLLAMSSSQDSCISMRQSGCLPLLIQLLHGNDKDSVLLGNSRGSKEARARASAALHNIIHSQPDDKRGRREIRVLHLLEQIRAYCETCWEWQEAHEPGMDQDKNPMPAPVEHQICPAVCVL
UniProt Q9UQB8: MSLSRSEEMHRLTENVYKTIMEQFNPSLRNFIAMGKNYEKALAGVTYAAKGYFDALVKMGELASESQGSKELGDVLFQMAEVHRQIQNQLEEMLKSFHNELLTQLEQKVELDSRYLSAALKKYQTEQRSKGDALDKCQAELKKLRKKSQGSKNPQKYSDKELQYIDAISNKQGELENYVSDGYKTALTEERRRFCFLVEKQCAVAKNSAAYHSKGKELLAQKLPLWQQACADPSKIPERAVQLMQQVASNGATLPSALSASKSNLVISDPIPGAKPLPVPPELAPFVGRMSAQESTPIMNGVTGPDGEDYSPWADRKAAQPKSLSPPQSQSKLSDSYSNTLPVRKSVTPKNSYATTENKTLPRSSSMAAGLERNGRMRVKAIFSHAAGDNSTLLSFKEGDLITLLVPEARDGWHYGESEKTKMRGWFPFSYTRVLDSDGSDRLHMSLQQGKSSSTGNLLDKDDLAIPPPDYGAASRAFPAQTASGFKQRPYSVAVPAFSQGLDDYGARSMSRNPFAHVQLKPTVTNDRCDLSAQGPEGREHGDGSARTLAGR

One assay concerns the target mRFP-Cdc42V12 (UniProt P60953). Briefly: FRET or BRET; acceptor photobleaching FRET (AP-FRET), GFP donor and mRFP acceptor fusions coexpressed in CHO cells, fixed 24 h after transfection; positive FRET: %FE >3%. For orientation: BRET reads energy transfer from a luciferase to a nearby fluorophore.
In a further assay the target is GST-Cdc42V12 (UniProt P60953). Briefly: pull-down; GST-tagged Cdc42V12, Cdc42N17 or GST bound to glutathione-sepharose beads; 35S-labelled in vitro translated products (reticulocyte lysate); SDS-PAGE, autoradiography; only the target purified.
A further assay concerns the target GST-Cdc42N17 (UniProt P60953). The description is as above.
Another assay deals with GFP-Cdc42V12 (UniProt P60953). Briefly: FRET or BRET; acceptor photobleaching FRET (AP-FRET), GFP donor and mRFP acceptor fusions coexpressed in CHO cells, fixed 24 h after transfection; positive FRET: %FE >3%.
The next assay addresses GFP-Cdc42N17 (UniProt P60953). The description is as above.

Results are given in words; binding and its absence hold for the method and conditions named. In cells and extracts the contact can be indirect. Some results given as binding are weak or reduced against the parent protein; the word gives no strength.

As for “GFP-APC^1–1638 (from UniProt P25054 1-1638) (domain or fragment)”, in the assay with mRFP-Cdc42V12, the binding result was “binds”.
“^35S-APC^222–653 (from UniProt P25054 222-653) (domain or fragment)”: the binding result was “binds” with GST-Cdc42V12 and “no binding” with GST-Cdc42N17.
^35S-IRSp53 (from UniProt Q9UQB8 1-552): the binding result is “binds” with GST-Cdc42V12 and “no binding” in the assay with GST-Cdc42N17.
In the case of “mRFP-APC^222–453 (from UniProt P25054 222-453) (domain or fragment)”, the binding entry in the assay with GFP-Cdc42V12 is given as “no binding”.
With “mRFP-APC^222–653 (from UniProt P25054 222-653) (domain or fragment)”, the binding result in the assay with GFP-Cdc42N17 is “no binding”.
